No constants are given. Whether binding was seen depends on the method and setting. Binding seen in cells or lysates may run through a third protein. Some binding calls cover weakened binding; strength is not graded here. Tags and fused reporters may be left off the sequences shown.

By UniProt entry, the sequences of proteins in these tests, tags left out. Where a name states a change or a piece, a line headed by the entry shows the natural chain unless it says otherwise. Chains listed by the source or under a name are the forms on record and can include a tag or linker. Residues count along the entry.
UniProt O75475: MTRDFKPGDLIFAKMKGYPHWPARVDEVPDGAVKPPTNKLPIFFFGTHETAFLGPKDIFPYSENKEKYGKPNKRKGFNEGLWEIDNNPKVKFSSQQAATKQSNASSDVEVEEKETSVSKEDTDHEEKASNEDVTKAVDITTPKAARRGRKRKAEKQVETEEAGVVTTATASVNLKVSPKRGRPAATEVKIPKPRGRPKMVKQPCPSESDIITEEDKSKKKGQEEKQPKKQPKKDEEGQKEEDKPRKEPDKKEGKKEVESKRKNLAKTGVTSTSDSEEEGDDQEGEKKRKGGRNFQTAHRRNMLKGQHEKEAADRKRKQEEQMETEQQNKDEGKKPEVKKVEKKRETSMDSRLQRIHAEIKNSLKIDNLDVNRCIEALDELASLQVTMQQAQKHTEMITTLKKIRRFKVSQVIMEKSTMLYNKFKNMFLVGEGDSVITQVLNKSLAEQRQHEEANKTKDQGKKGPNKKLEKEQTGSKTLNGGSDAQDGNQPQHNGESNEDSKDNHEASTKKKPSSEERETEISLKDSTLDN
Gluc1-LEDGF 1-325: residues 1-325 of O75475
Gluc1-LEDGF 1-176: residues 1-176 of O75475
Gluc1-LEDGF PWWP domain (1-100), WT: residues 1-100 of O75475
Gluc1-LEDGF PWWP domain (1-100) I42AF43A (O75475, form named): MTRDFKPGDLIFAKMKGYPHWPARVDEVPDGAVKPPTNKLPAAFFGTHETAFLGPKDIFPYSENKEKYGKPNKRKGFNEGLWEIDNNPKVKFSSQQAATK
Gluc1-LEDGF PWWP domain (1-100) K14AK16A (O75475, form named): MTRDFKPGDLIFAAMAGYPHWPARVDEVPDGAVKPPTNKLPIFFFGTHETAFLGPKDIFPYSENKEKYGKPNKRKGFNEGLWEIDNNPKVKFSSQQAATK
Gluc1-LEDGF PWWP domain (1-100) W21A (O75475, form named): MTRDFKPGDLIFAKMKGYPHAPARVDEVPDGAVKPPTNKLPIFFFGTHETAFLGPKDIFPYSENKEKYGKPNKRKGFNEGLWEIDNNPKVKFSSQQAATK
Gluc1-LEDGF PWWP domain (1-100) A51P (O75475, form named): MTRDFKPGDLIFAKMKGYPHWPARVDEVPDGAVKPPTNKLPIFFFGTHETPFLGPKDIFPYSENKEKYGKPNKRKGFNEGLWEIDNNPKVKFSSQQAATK
UniProt Q7Z4V5, residues 1-99: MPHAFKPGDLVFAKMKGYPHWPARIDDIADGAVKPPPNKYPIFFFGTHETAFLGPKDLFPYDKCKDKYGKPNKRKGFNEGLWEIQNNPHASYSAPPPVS
UniProt P52701, residues 86-198: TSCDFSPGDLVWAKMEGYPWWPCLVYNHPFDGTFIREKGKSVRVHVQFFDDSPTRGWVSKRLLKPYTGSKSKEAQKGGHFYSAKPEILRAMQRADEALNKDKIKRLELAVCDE

These results are taken from publication PMC3842248.

Holding throughout (assay): split reporter; protein complementation assay with Gaussia princeps luciferase fragments: Gluc1-LEDGF construct or PWWP domain and Gluc2-PIR co-expressed in 293T cells, luminescence of the lysate 24 h after transfection; normalized luminescence ratio (NLR), threshold 3.5
The target of test [1] is Gluc1-LEDGF PWWP domain (1-100) I42AF43A (UniProt O75475).
Test [2] addresses T1, NSD2 PWWP domain (aa 211-314), PCA fusion (human) (UniProt O96028).
T1 sequence: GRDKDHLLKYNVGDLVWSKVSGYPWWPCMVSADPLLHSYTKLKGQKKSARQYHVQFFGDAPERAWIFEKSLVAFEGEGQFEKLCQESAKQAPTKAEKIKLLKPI

For test [3], the target named is HRP2 PWWP domain (aa 1-99), PCA fusion (human) (UniProt Q7Z4V5).
In test [4] the target is Gluc1-LEDGF PWWP domain (1-100) K14AK16A (UniProt O75475).
The next test addresses Gluc1-LEDGF 1-176 (UniProt O75475).
The target of test [5] is Gluc1-LEDGF PWWP domain (1-100) W21A (UniProt O75475).
The target of test [6] is Gluc1-LEDGF PWWP domain (1-100), WT (UniProt O75475).
The target of another test is Gluc1-LEDGF 1-325 (UniProt O75475).
The target of test [7] is MSH6 PWWP domain (aa 86-198), PCA fusion (human) (UniProt P52701).
The target in test [8] is Gluc1-LEDGF PWWP domain (1-100) A51P (UniProt O75475).
The target of test [9] is Gluc1-LEDGF/p75 full length (UniProt O75475).

B1: Gluc2-TOX4 PIR (domain or fragment, UniProt O94842 203-621)
chain: VEAGKKQKAPKKRKKKDPNEPQKPVSAYALFFRDTQAAIKGQNPNATFGEVSKIVASMWDSLGEEQKQVYKRKTEAAKKEYLKALAAYKDNQECQATVETVELDPAPPSQTPSPPPMATVDPASPAPASIEPPALSPSIVVNSTLSSYVANQASSGAGGQPNITKLIITKQMLPSSITMSQGGMVTVIPATVVTSRGLQLGQTSTATIQPSQQAQIVTRSVLQAAAAAAAAASMQLPPPRLQPPPLQQMPQPPTQQQVTILQQPPPLQAMQQPPPQKVRINLQQQPPPLQIKSVPLPTLKMQTTLVPPTVESSPERPMNNSPEAHTVEAPSPETICEMITDVVPEVESPSQMDVELVSGSPVALSPQPRCVRSGCENPPIVSKDWDNEYCSNECVVKHCRDVFLAWVASRNSNTVVFVK
Take B1: the binding result in [1] is reported as “no binding (tested: NLR threshold 3.5)”; in test [2], “no binding”; in [3], “binds”; in test [4], “no binding (tested: NLR threshold 3.5)”; with Gluc1-LEDGF 1-176, “binds”; in test [5] it was “no binding (tested: NLR threshold 3.5)”. In addition, the binding result is on record as “binds” in [6]; “binds” in the test with Gluc1-LEDGF 1-325; “no binding” in test [7]; “no binding (tested: NLR threshold 3.5)” in [8]; “binds” in [9].
